Measured values from the RNAGym collection of RNA variant scans (doi:10.1101/gad.245936.114).
Variants at the background level are over-represented here.

B1: tRNA (parent)
chain: CUCUCGGUAGCCAAGUUGGUUUAAGGCGCAAGACUUUAAUUUAUCACUACGAAAUCUUGAGAUCGGGCGUUCGACUCGCCCCCGGGAGAUUUUUUCCUCGAGCAA

Variants of: B1
Assay: nonsense suppression (GFP-seq) (ratio to wild type); higher = more function; SUP4oc tRNA, yeast GFP reporter sort-seq
In short: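 Yeast carrying genome-integrated SUP4oc tRNA variants from a library with ~3% random mutations were grown in raffinose/galactose medium with 80 mg/L adenine. Each strain also carried a galactose-driven GFP ochre reporter and RFP. Cells were sorted into GFP/RFP bins, and each bin was Illumina-sequenced (phred ≥30). Nonsense suppression (GFPSEQ) is the bin median GFP/RFP, weighted by each variant's estimated cell share per bin, relative to wild-type SUP4oc; variants needed ≥100 reads and ≥30 cells.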

Variant	nonsense suppression
U4A G15U	≤ 0.026
U4A G15C	≤ 0.026
U4C U35C G69C	≤ 0.026
U4G G18U G25U G88C A89U	≤ 0.026
U4C C72G	≤ 0.026
U4G A89U	0.0348
U4C A30G U70G C83U	≤ 0.026
U4G G19U G61U C82A	≤ 0.026
U4G G59U C75U C80A	≤ 0.026
U4C G15C C27U A30U	≤ 0.026
C5A A33U G84C	≤ 0.026
U4G G19A G26U	≤ 0.026
U4A C11A G19U A87G	≤ 0.026
U4C C5A U55C C81U	≤ 0.026
U4C A9C G84A	0.0602
U4G G85C	0.813
C5A A9U A24C U55G C56A	≤ 0.026
U4A A13C U70C C82U	≤ 0.026
U4A U20G G32A G61A C79G	≤ 0.026
C3U U8A U76A	≤ 0.026
U4G C34A	≤ 0.026
U4C A13C A24U	0.488
C5A A74G	≤ 0.026
U4C A14G G59U	≤ 0.026

Variant	nonsense suppression
U4G G67A C82U G88C	≤ 0.026
U4G G78U	0.0997
U4G G10U C34U U57C	≤ 0.026
U4G A87C	0.0794
U4C C34U C72U C77U A89U	≤ 0.026
C3U U16C C29A G86A	≤ 0.026
U4G G18C G85U	≤ 0.026
U4A G18C C34G U58A A89C	≤ 0.026
U4A U22G	0.155
C5A A14C A24C G61U A87C	≤ 0.026
U4G G7A	0.0974
U4A G86C	≤ 0.026
U4C C12A G67C G73A	≤ 0.026
U4A G7C	≤ 0.026
C3U U17G G18U G25C A31G	≤ 0.026
C3U U4G C34A	≤ 0.026
U4C G18A	≤ 0.026
U4G C83G	≤ 0.026
U4C C29U C68G	≤ 0.026
U4A G10U C12A	≤ 0.026
U4G C79A	≤ 0.026
U4A G19A	≤ 0.026
C3U U55C	≤ 0.026
C5A C11U G18U G28U A54U G65A	≤ 0.026

Variant	nonsense suppression
U4A G18A C75G	≤ 0.026
U4G A14U G25U A33U A89C	≤ 0.026
U4A U20G C34U U58G	≤ 0.026
U4C G73U	≤ 0.026
C5A C11U	≤ 0.026
C5A C11A	≤ 0.026
C3U U63G G86U	≤ 0.026
U4C A9G G67C U70G	≤ 0.026
U4G C11G A89U	≤ 0.026
U4G A54G	≤ 0.026
U4G A14G	≤ 0.026
C3U U35A C64A G78C	≤ 0.026
C5A A14U A30U U57C	≤ 0.026
U4A G7A G25U G59A	≤ 0.026
U4A G18U A31C C77G	≤ 0.026
U4C U17G G67A G86A	≤ 0.026
U4A A33G U57C	≤ 0.026
U4C C27A C72G	≤ 0.026
U4A C11A U35C	≤ 0.026
U4C U8G G78C	≤ 0.026
U4C C5A G6U A13C G28A A31C	≤ 0.026
C5A A14U A33C U55C	≤ 0.026
U4A G32U	≤ 0.026
U4G C5U	0.0955

Variant	nonsense suppression
U4G U17G C27A G67U C68A C81A C82A	≤ 0.026
U4A U17A U22C	0.0499
U4C C77U	≤ 0.026
U4A G67C C80G	≤ 0.026
U4A G28U U57C G67C G85U G88C	≤ 0.026
U4C A13U G78A	0.424
U4A C11G A74G	≤ 0.026
U4G G18C	≤ 0.026
U4G G18A	≤ 0.026
U4G G6A U8G A9U	≤ 0.026
U4G A30U	0.0386
U4A G7U A14U A24C G26U C79G	≤ 0.026
U4G U8A G19A U57C	≤ 0.026
U4C C11G U76A	≤ 0.026
U4C U58C A60U G69U G88A	≤ 0.026
U4C A23G U58A G86C	≤ 0.026
C5A A9U	≤ 0.026
U4C G66A G67C C79A	≤ 0.026
U4A U76A A87U	≤ 0.026
U4C U20C G86U	≤ 0.026
C3U U16G G73U C77A	≤ 0.026
U4G A23C	≤ 0.026
U4C A9U G67C	≤ 0.026
C5A A24C A31G G86A	≤ 0.026

Variant	nonsense suppression
U4A C29U A30G U57G G78U G85A	≤ 0.026
U4A A23U C81U	≤ 0.026
U4C C12G C64G G66C	≤ 0.026
U4C C34G C82U	0.179
C5A A62C	≤ 0.026
U4G A23C U35G G65C	≤ 0.026
U4C U21G U71C G78U	≤ 0.026
U4A U20G C56A U71A C77U	≤ 0.026
U4A C29A U71C G78U	≤ 0.026
U4C G67A U70C C72G	≤ 0.026
U4C G6U G26C C72G	≤ 0.026
U4C A13U U63G G66A	≤ 0.026
C3U U17A U58C G88A	≤ 0.026
U4A G7C G15C G32U	≤ 0.026
U4A G32U U35A	≤ 0.026
U4C A9G U22G	0.202
U4A C5G A33G	≤ 0.026
U4C C34G	0.0649
U4C A31C	≤ 0.026
U4C U35A C83A	≤ 0.026
U4G U58C C80A	≤ 0.026
U4G C80G	≤ 0.026
U4A C75A C82U	≤ 0.026
U4G G67U C77G G85A	≤ 0.026

Variant	nonsense suppression
U4G A23C G26U A62U G69C G84U	0.116
U4C U17A G61C	≤ 0.026
C5A A60G G67U U70C G78A C81A	≤ 0.026
U4G G7A C12A	≤ 0.026
U4A A33U U71A A74G	≤ 0.026
C5A C12A G88A	≤ 0.026
U4G C12U G66C	≤ 0.026
U4G G6C U8A G78A	≤ 0.026
U4G C27G	≤ 0.026
U4G G7U U8A G84C	≤ 0.026
U4C G15A U21A	0.214
U4A A33G	≤ 0.026
U4C C29G C34A C75G	≤ 0.026
U4G U8A C75U	≤ 0.026
U4G A33G	0.0332
C3U U57A C79A	≤ 0.026
C5A A31C	≤ 0.026
U4G A9C C64A A74C	≤ 0.026
U4A U55G G59C	≤ 0.026
U4G U58G	≤ 0.026
U4A A23G C68A A87G	≤ 0.026
C3U U58A	≤ 0.026
U4C U57G	0.0337
U4A G25A U55G U70G C77U	≤ 0.026

Variant	nonsense suppression
U4C A14C C27U A30U A60G	≤ 0.026
U4C U8G G65A	≤ 0.026
C3U U17G A33G U70G	≤ 0.026
U4A C27A G32C C34G C83A	≤ 0.026
U4A A31U	0.0312
U4A C11A G86U	≤ 0.026
U4G G25U G26C G32A G69C	≤ 0.026
U4A C34G	≤ 0.026
U4G U35G U55C	≤ 0.026
U4G G61A G67U C68G C81G G85U	≤ 0.026
U4G G7U C27A	≤ 0.026
U4C A13U	1.12
U4G A24C	0.134
U4A A74C A87G	≤ 0.026
C5A A60C	0.0331
U4C A23U U76G	≤ 0.026
U4C A33G	0.0434
C3U U63C C75G	≤ 0.026
C5A	≤ 0.026
U4C G7A A14C U21C C80A	≤ 0.026
U4G U57G	0.0369
C5A A14U A60G C79G	≤ 0.026
C5A A24C G67A	≤ 0.026
